Measurements: PMC4960310
Read-outs that look alike come from different tables or passages of the source. Results are given in words; binding and its absence hold for the method and conditions named. For some assays here: In cells and extracts the contact can be indirect. Some binding calls cover weakened binding; strength is not graded here. For some assays here: Sequences can lack the tags named with a protein. Values belong to the molecule of their own block, whether it stands above or below them.

Protein sequences, listed by entry. Tags and fused reporters are not part of them. Residues count along the entry.
UniProt Q61686: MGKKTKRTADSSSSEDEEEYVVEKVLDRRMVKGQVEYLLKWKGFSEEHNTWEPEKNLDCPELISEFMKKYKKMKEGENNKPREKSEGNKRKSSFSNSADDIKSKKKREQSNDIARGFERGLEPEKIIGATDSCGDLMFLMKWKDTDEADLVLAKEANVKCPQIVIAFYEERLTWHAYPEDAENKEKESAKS
UniProt P63279: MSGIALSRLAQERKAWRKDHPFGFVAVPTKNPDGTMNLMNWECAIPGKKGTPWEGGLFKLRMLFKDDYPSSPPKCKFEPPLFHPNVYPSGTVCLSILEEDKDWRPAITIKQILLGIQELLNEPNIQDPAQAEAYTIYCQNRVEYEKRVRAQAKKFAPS
UniProt P63165, residues 1-97: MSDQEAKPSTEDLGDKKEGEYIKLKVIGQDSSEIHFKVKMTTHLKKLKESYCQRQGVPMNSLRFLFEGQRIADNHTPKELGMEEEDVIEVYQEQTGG

What was measured:
[1] = target: T1, His-Suv39h1-1-114 (mouse) (UniProt O54864); assay: far-Western, overlay or dot blot; lysates of E. coli expressing His-Suv39h1 full-length and truncation fragments resolved by SDS-PAGE, transferred to nitrocellulose, denatured/renatured and incubated with purified recombinant GST fusion protein; bound protein detected with anti-GST; only the binder purified
T1 sequence: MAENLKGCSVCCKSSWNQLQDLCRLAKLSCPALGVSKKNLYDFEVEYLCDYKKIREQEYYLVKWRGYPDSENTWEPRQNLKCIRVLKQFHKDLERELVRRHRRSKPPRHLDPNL

[2] = target: T2, His-Suv39h1-1-167 (mouse) (UniProt O54864); assay: as above
T2 sequence: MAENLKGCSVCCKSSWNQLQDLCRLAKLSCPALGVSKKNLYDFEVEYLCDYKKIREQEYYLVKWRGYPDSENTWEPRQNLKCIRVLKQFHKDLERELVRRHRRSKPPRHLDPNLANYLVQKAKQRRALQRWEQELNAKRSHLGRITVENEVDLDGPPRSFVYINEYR

[3] = target: T3, His-Suv39h1 full-length (WT) (mouse) (UniProt O54864); assay: as above
T3 sequence: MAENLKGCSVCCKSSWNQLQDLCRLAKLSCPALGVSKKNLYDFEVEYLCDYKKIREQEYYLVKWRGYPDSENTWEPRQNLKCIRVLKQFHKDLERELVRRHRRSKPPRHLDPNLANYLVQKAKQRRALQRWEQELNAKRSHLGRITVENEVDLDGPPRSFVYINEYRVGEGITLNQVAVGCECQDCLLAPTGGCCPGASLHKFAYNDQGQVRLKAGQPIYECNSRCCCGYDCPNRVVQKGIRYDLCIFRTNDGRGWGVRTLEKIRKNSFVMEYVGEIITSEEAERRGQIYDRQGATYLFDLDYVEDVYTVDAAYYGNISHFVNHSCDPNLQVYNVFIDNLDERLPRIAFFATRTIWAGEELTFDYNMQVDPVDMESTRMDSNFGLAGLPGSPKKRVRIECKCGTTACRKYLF

[4] = target: T4, GST-Suv39h1-1-114 (mouse) (UniProt O54864); assay: AlphaScreen or HTRF; saturation binding; fixed concentrations of GST-Suv39h1 truncated versions with variable His-HP1α; 2 h at room temperature; 20 mM Tris pH 7.5, 100 mM NaCl, 2 mM MgCl2, 1 mM DTT, 0.05% BSA, 0.1% Tween; Nickel-Chelate acceptor and Glutathione donor beads; both purified
T4 sequence: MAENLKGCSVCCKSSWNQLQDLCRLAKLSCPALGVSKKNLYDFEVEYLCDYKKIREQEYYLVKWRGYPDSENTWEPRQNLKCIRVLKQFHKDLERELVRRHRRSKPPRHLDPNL

[5] = target: T5, GST-Suv39h1-1-167 (mouse) (UniProt O54864); assay: as above
T5 sequence: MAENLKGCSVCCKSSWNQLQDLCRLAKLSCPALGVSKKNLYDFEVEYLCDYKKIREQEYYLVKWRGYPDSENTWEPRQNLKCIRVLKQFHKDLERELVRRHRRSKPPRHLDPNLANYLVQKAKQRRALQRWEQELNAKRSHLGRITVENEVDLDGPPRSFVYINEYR

HP1α-HA [6] = target: HP1α-HA (UniProt Q61686); assay: co-IP; anti-HA agarose beads on total cell extracts of NIH3T3 cells transfected with HP1α-HA, GFP-SUMO-1 and Myc-Suv39h constructs; 2 h at 4 °C; lysis buffer with 150 mM NaCl, 1% Nonidet P-40, 0.75% sodium deoxycholate, 20 mM N-ethylmaleimide; western blot with anti-Myc
[7] = target: T6, TALE-Suv39h1-1-114-HA (mouse) (UniProt O54864); assay: co-IP; anti-HA immunoprecipitation of TALE-Suv39h1-HA constructs from total cell extracts; endogenous HP1α detected
T6 sequence: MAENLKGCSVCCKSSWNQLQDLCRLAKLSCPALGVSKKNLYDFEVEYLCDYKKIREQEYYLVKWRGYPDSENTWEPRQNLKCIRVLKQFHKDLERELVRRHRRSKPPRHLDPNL

[8] = target: T7, TALE-Suv39h1-1-167-HA (mouse) (UniProt O54864); assay: as above
T7 sequence: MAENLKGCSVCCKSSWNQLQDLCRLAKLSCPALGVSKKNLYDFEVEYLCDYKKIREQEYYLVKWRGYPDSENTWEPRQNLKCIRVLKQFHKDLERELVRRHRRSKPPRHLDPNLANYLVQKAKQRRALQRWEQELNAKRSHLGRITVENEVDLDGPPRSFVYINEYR

HP1α-HA [9] = target: HP1α-HA (UniProt Q61686); assay: co-IP; anti-HA agarose beads on total cell extracts of NIH3T3 cells transfected with HP1α-HA, GFP-SUMO-1 and Myc-Suv39h constructs; 2 h at 4 °C; lysis buffer with 150 mM NaCl, 1% Nonidet P-40, 0.75% sodium deoxycholate, 20 mM N-ethylmaleimide; western blot with anti-Myc; remark: listed apart in the source
GST-Ubc9 = GST-Ubc9 (UniProt P63279); assay: pull-down; GST-Ubc9 on Glutathione Sepharose 4B mixed with total extract of NIH3T3 cells expressing Myc-Suv39h1; 2 h at 4 °C; 20 mM Tris-HCl pH 8, 200 mM NaCl, 2 mM EDTA, 0.5% Nonidet P-40; five washes; only the target purified

binding [4]: binds
binding [5]: binds
Molecule: His-HP1α (from UniProt Q61686 1-191)

binding (HP1α-HA [6]): binds
Molecule: Myc-Suv39h2-ΔN82 (from UniProt Q9EQQ0 83-477) (domain or fragment)

binding [7]: binds
binding [8]: binds
Molecule: endogenous HP1α (from UniProt Q61686 1-191)

binding (HP1α-HA [9]): binds
binding (GST-Ubc9): binds
B2: Myc-Suv39h1 full-length (protein, UniProt O54864 1-412)
chain: MAENLKGCSVCCKSSWNQLQDLCRLAKLSCPALGVSKKNLYDFEVEYLCDYKKIREQEYYLVKWRGYPDSENTWEPRQNLKCIRVLKQFHKDLERELVRRHRRSKPPRHLDPNLANYLVQKAKQRRALQRWEQELNAKRSHLGRITVENEVDLDGPPRSFVYINEYRVGEGITLNQVAVGCECQDCLLAPTGGCCPGASLHKFAYNDQGQVRLKAGQPIYECNSRCCCGYDCPNRVVQKGIRYDLCIFRTNDGRGWGVRTLEKIRKNSFVMEYVGEIITSEEAERRGQIYDRQGATYLFDLDYVEDVYTVDAAYYGNISHFVNHSCDPNLQVYNVFIDNLDERLPRIAFFATRTIWAGEELTFDYNMQVDPVDMESTRMDSNFGLAGLPGSPKKRVRIECKCGTTACRKYLF

Second part, the molecule before the results:

Molecule: GST-HP1α (from UniProt Q61686 1-191)
binding [1]: binds
binding [2]: binds

Molecule: GST-SUMO-1 (from UniProt P63165 1-97)
binding [3]: binds

Molecule: GST-Ubc9 (from UniProt P63279 1-158) (enzyme)
binding [1]: no binding
binding [3]: binds
binding [2]: binds

B1: Myc-Suv39h1+h2N82 (protein, UniProt Q9EQQ0 1-82; O54864 1-412)
chain: MATARAKARGSEAGARCHRAPGPPPRPKARRTARRRRAETLTARRSRPSAGERRAGSQRAWSGAPRAAVFGDECARGALFKAMAENLKGCSVCCKSSWNQLQDLCRLAKLSCPALGVSKKNLYDFEVEYLCDYKKIREQEYYLVKWRGYPDSENTWEPRQNLKCIRVLKQFHKDLERELVRRHRRSKPPRHLDPNLANYLVQKAKQRRALQRWEQELNAKRSHLGRITVENEVDLDGPPRSFVYINEYRVGEGITLNQVAVGCECQDCLLAPTGGCCPGASLHKFAYNDQGQVRLKAGQPIYECNSRCCCGYDCPNRVVQKGIRYDLCIFRTNDGRGWGVRTLEKIRKNSFVMEYVGEIITSEEAERRGQIYDRQGATYLFDLDYVEDVYTVDAAYYGNISHFVNHSCDPNLQVYNVFIDNLDERLPRIAFFATRTIWAGEELTFDYNMQVDPVDMESTRMDSNFGLAGLPGSPKKRVRIECKCGTTACRKYLF
binding (HP1α-HA [9]): binds
